From PubChem BioAssay AID1508624 (National Center for Advancing Translational Sciences (NCATS), 2021)
Among all 48,000 compounds or so, about 120 (0.25%) were called active. Roughly 4% stayed inconclusive and do not appear here. The call rests on the fitted dose curve; in most records, active means well fitted activation curve with a large enough effect; inconclusive means small, poorly fitted or top-dose-only effect, or another doubt; inactive means no such curve, though single readings can be large or run the other way. The list shows a part of the results.

test: Primary qHTS for Identification of Small Molecule Activators of Huntingtin-Antisense Promoter Activity; conditions: HEK293 HTT-AS promoter firefly luciferase reporter, 24 h; series mostly up to 57.5 µM; activity change, positive = activation: at the top concentration; further: nearly all actives have a fitted effect of over 55% in size
In short: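 Luminescence was read after Dual-Glo reagent and a 10 min room-temperature incubation. Values were normalized to vehicle (0% activity) and zero RLU (-100% activity). Reporter HEK293 cells had been exposed to compounds (up to 57.5 uM final) for 24 h.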

Activity change, positive = activation, inactive:
CN1CCN(C2=Nc3ccccc3Oc3ccc(Cl)cc32)CC1 -18%
CCc1ccccc1N1C(=O)N(Cc2ccccc2C)c2ccccc2S1(=O)=O -38.1%
COc1ccc(S(=O)(=O)n2ccnc2)cc1C(C)(C)C -0.954%
COc1ccc(OC)c2sc(N3CCN(C(=O)C4CC4)CC3)nc12 -6.18%
CCOc1ccc(NC(=O)CC2C(=O)OCCN2CC)cc1 (stereo unspecified) 11.4%
COc1ccccc1NC(=O)c1cnc(SCC(=O)N2CCCc3ccccc32)n(C)c1=O -0.547%
CC1=C(C(=O)N2CCN(c3cccc(C(F)(F)F)c3)CC2)C2(CCCCC2)OC1=O -22.1%
CCOC(=O)c1ccccc1NC(=O)c1cc2c(=O)oc3ccc(C)cc3c2s1 -11%
COc1ccccc1CNC(=O)CN1C(=O)CSc2ccc(S(=O)(=O)N3CCCCC3)cc21 -26.2%
COC(=O)c1c(Oc2ccc(C(C)=O)cc2)nnc(-c2ccccc2)c1-c1ccccc1 -27.9%
CCN(c1ccccc1)c1ncnc2c1cnn2-c1ccc(C)cc1C 17.3%
Cc1ccc(NC(=O)Cn2cc3c(n2)CCCCC3)cc1 -11.4%
Cc1ccc(S(=O)(=O)Nc2cccc(-c3cn4cccc(C)c4n3)c2)cc1 -20.2%
O=C(Nc1ccc(Cl)cc1Cl)c1cc(S(=O)(=O)N2CCc3ccccc32)ccc1F -11%
Cc1ccc(C)c(Nc2nc3c(S(=O)(=O)c4ccc(C(C)C)cc4)nnn3c3ccsc23)c1 -44.7%
Cc1cccc(N2CCN(C(=O)c3c(C)oc4ncnc(N5CCCCC5)c34)CC2)c1C -24.4%
CCOC(=O)c1noc2nc(C)n(CC(=O)Nc3ccccc3F)c(=O)c12 6.18%
Fc1cc(Br)ccc1Nc1c2c(nc3nc(-c4cccs4)nn13)CCCC2 -26.4%
CNC(=O)c1cc(Nc2nnc(-c3ccc(O)cc3)c3ccccc23)ccc1OC -22.3%
O=C1CCCc2cc(S(=O)(=O)NCC3CCC(C(=O)Nc4ccccc4F)CC3)ccc2N1 (stereo unspecified) -25.8%
CC(NC(=O)c1ccccc1NC(=O)c1nsc2ccccc12)c1ccccc1 (stereo unspecified) 11.3%
COc1ccc(OC)c(CCNc2ncnc3onc(-c4ccc(F)cc4)c23)c1 -40.9%
COC(=O)c1ccc(OC)c(Cn2c(=O)n(Cc3ccccc3)c(=O)c3c2c2cc(OC)ccc2n3C)c1 -4.56%
CC(=O)c1ccc(NC(=O)C2=CC(c3ccc4c(c3)OCO4)=NS(=O)(=O)N2C)cc1 -27.4%
CCCCOc1ccc(C(=O)N2CCN(CCc3ccccn3)CC2)cc1 -16.2%
COc1ccc(-c2cc(C)nc3c(-c4ccc(OC)c(OC)c4)c(C)nn23)cc1 -7.02%
COc1ccc(N2CCN(C(=O)c3cc4ccc5cccnc5c4[nH]3)CC2)cc1 -0.912%
CSc1ccc(-c2nc3ccc(C)cn3c2Nc2ccccc2C)cc1 0.731%
CS(=O)(=O)N(CC(=O)NCCc1ccccc1)c1cc(C(F)(F)F)ccc1Cl -13.1%
Cc1cccc(-c2nnn3c2nc(NCCc2ccc(S(N)(=O)=O)cc2)c2cc(Cl)ccc23)c1 -5.65%
CCCCCn1c(=O)[nH]c2cc(C(=O)N3CCN(c4cccc(C)c4)C(C)C3)ccc2c1=O (stereo unspecified) -56.6%
Cc1cccc(Oc2nc3c(c(=O)n(C)c(=O)n3C)n2C)c1 -5.36%
O=C(NCC12CC3CC(CC(C3)C1)C2)c1cc2nc(-c3ccccc3)cc(C(F)(F)F)n2n1 -8.32%
CCn1cc(C(=O)NCc2ccccc2OC)c(=O)c2cc(S(=O)(=O)N3CCCCC3)ccc21 -13.8%
CCOC(=O)[C@@H](N)Cc1ccc(-c2cc(O[C@H](c3ccc(Cl)cc3-n3ccc(C)n3)C(F)(F)F)nc(N)n2)cc1 -18.6%
COc1ccccc1CN1COc2ccc3c(oc(=O)c4ccccc43)c2C1 -11.4%
CCn1c(=O)cc(SCC(=O)NCCc2ccc(Cl)cc2)c2ccccc21 -16.6%
CCOC(=O)C1CCC(CN(Cc2ccc(Cl)cc2)S(=O)(=O)c2ccc(F)c(C(=O)Nc3cccc(F)c3)c2)CC1 (stereo unspecified) -6.58%
COc1ccccc1Nc1cc(C(=O)NC2CCCC2)c2ccccc2n1 -25.5%
COc1ccc(/C=C/C(=O)Nc2sc3c(c2C(N)=O)CCCC3)cc1 2.6%
COc1ccc(S(=O)(=O)N2CCCCC2)cc1C(=O)Nc1cccc(C(F)(F)F)c1 -13.4%
CCOC(=O)c1cnc(NCc2ccccc2OC)c2ccccc12 -12.4%
COc1cccc2sc(=NC(=O)c3ccc(S(=O)(=O)N4CCCCC4)cc3)n(C)c12 -6.06%
COc1ccc(-c2ccc(=O)n(CC(=O)Nc3ccc(C)cc3C)n2)cc1 -8.61%
COc1ccc(-c2noc(CCC(=O)NCc3ccc(C)cc3)n2)cc1 11.1%
Cc1ccc(-c2ccc(CCC(=O)O)n2-c2cccc(O)c2)cc1 2.15%
O=c1n(Cc2cccc(C(F)(F)F)c2)c2ccccc2c2nc(-c3ccccc3)nn12 -25.1%
Cc1ccc(CNC(=O)CCCCCn2c(=O)c3sccc3n(CC(=O)N(C)c3ccccc3)c2=O)cc1 0.644%
CCOC(=O)c1cccc(NC(=O)Cn2ncc3c4ccccc4n(Cc4ccccc4)c3c2=O)c1 -14%
Cc1ccc(C(=O)Nc2ccc3oc(-c4ccc(C(C)(C)C)cc4)nc3c2)cc1 -14.8%
CCc1ccc2oc(C(=O)Nc3cccc(C(F)(F)F)c3)cc(=O)c2c1 10.8% [at 11.5 µM, percent change from vehicle, -100% = no light]
CSc1nn(Cc2ccc(Cl)cc2)c(N(C(C)=O)C(C)=O)c1S(=O)(=O)c1ccccc1 -35.6%
Cc1ccc(NS(=O)(=O)c2ccc3[nH]c(=O)ccc3c2)cc1N(C)C -26.8%
Cc1cccc(Cn2c(=O)n(CCc3ccccc3)c(=O)c3c(C)c(C)sc32)c1 11.9%
Cc1ccc(NC(=O)c2cc(C)nc3c2c(C)nn3-c2cccc(Cl)c2C)c(C)c1 -13.9%
C#CCOc1ccc(-c2nnc(Nc3cccc(C)c3)c3ccccc23)cc1 -44.4%
Cn1cc(S(=O)(=O)c2ccccc2)c(=O)c2cc(F)c(N3CCN(c4ccccc4)CC3)cc21 -18.5%
Cc1cccc(-n2c(-c3ccccc3)cn3c4c(=O)[nH]c(=O)n(C)c4nc23)c1 -0.452%
Cc1ccc(-c2cc(C(F)(F)F)n3nc(C(=O)Nc4ccc(Cl)c(C(F)(F)F)c4)cc3n2)cc1 2.86%
Cc1cccc(C)c1OCC(=O)Nc1nc(-c2ccc(Br)cc2)ns1 -0.178%
Cc1cc(C)c(Cn2c3ccccc3c3cnn(CC(=O)N4CCCCCC4)c(=O)c32)c(C)c1 -14.4%
O=C(Cn1c(=O)n(-c2cccc(Cl)c2)c(=O)c2sc3ccccc3c21)N1CCCC1 -17.1%
CCOc1ccc(C(=O)Nc2c(C(=O)Nc3ccccc3F)oc3ccccc23)cc1OCC -15.1%
CC(=O)c1ccc(NC(=O)c2c3c(nc4ccccc24)C(=O)N(C2CCCCC2)C3)cc1 -6.6%
O=S1(=O)c2ccccc2N(Cc2ccccc2)c2ccccc21 -8.61%
CCN(CC)CCCNC(=O)C1CCN(S(=O)(=O)CC)CC1 -2.51%
COC(=O)c1cc(C)nc2c1c(=O)nc(SCc1ccccc1F)n2C1CC1 -6.09%
CCn1c(=O)c2cc(C(=O)NCCc3cc(OC)ccc3OC)sc2c2ccccc21 -12.2%
CCCCN(CC)CCNC(=O)c1cc2c(=O)oc3ccc(C)cc3c2s1 -17%
Cc1ccc(-n2c(C)nc3c(cnn3-c3ccccc3C)c2=O)cc1F -9.72%
Cc1cccc(Cn2cc(C(=O)Nc3ccc(F)c(C(F)(F)F)c3)ccc2=O)c1 -27.4%
O=C(NCc1cccc(F)c1)c1ccc(-n2cnc3cccnc32)cc1 -9.16%
O=C(NCCc1csc(-c2ccc(Cl)cc2)n1)c1cccs1 -32.1%
CCc1ccccc1NC(=O)Cn1c(-c2nonc2N)nc2ccccc21 -5.82%
COC(=O)c1c(NC(=O)CCCOc2ccc(C(C)(C)C)cc2)sc2c1CCC(C)C2 (stereo unspecified) -1.36%
CC1CCN(C(=O)CSc2nnc(-c3ccccc3Cl)o2)CC1 5.96%
COc1ccc(NC(=O)/C(C#N)=C/c2ccc(OCc3cc(=O)n4nc(C)sc4n3)cc2)cc1 -9.24%
CCN(C(=O)Cn1nc(Cc2cccnc2)c2ccccc2c1=O)c1ccccc1F -18.8%
O=S(=O)(Nc1ccc2oc3c(c2c1)CCCC3)c1cc(Cl)ccc1Cl -8%
OCCN1C[C@H](O)[C@@H](O)[C@H](O)[C@@H]1CO -5.31%
Cc1cccc(NC(=O)C2CCN(c3nnc(-n4c(C)ccc4C)s3)CC2)c1C 1.48%
COc1ccc(-c2nnc(C3CCN(C(=O)c4ccccc4F)CC3)o2)cc1 -88.3%
Cc1ccc(S(=O)(=O)NCCc2cn3c(C)csc3n2)cc1 -5.82%
COc1ccc(NC(=O)CCNS(=O)(=O)c2cccc3nsnc23)cc1 0%
COc1ccc(C2Sc3ccccc3NC3=C2C(=O)c2ccccc23)c(OC)c1OC (stereo unspecified) -33.8%
Cc1ccc2nc(-c3cc(NC(=O)c4ccc5c(c4)OCCO5)ccc3Cl)oc2c1 27%
COc1ccc(-c2onc(C)c2C)cc1S(=O)(=O)N1c2ccccc2CC1C (stereo unspecified) -40.9%
Cc1ccc(S(=O)(=O)Cc2nc(-c3ccc(C(=O)NCc4ccccc4)cc3)oc2C)cc1 -37.6%
Cc1ccc(NC(=O)CSc2nc3ncccc3[nH]2)cc1F 16.4%
O=C(Nc1cccc(Br)c1)N1CCC(CN2CCCCC2)CC1 -7.8%
COc1ccc(OCCn2cc(C(=O)C3CCCCC3)c3ccccc32)cc1 -21.8%
O=C(c1ccc2c(c1)CCN2S(=O)(=O)c1ccccc1)N1CCN(c2ccc(F)cc2)CC1 -10.4%
COc1cccc(N2CCN(C(=O)c3cnn(C(C)(C)C)c3C3CCN(C(=O)OC(C)(C)C)CC3)CC2)c1 -16.2%
O=C(NCc1ccc(Cl)cc1)C(=O)Nc1ccc(Br)cc1 -9.16%
CCc1cccc(NC(=O)Cn2c(=O)n(Cc3ccccc3)c(=O)c3c2c2cc(OC)ccc2n3C)c1 -12.1%
O=C(CSc1nc2c([nH]c3ccccc32)c(=O)n1-c1ccc(F)cc1)N1CCCCC1 -12.6%
